Measured values reported in PubChem BioAssay AID1963576 (National Center for Advancing Translational Sciences (NCATS), 2024).
About 60 (0.1%) of roughly 46,000 compounds were called active. Another 3% or so got no clear call; they are omitted. Calls follow the shape of the dose curve; as a rule, active = well fitted inhibition curve with a large enough effect; inconclusive = small, poorly fitted or top-dose-only effect; inactive = no such curve, though single readings can be large or run the other way. This is one part of the list.

Experiment: Primary qHTS assay for Inhibitors of ovarian cancer metastasis using an organotypic tumor microenvironment (TME) model. Also: nearly all actives have a fitted effect of over 65% in size.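 As to activity change, negative = inhibition: plate controls were DMSO wells for no effect and tomatine positive control wells for full effect.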
Settings: SKOV3ip1-GFP adhesion/invasion on 3D omental model, fluorescence; series mostly up to 45.8 µM; activity change, negative = inhibition: at the top concentration
Procedure, shortened: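 A 3D layer of primary human omental fibroblasts, mesothelial cells, fibronectin and collagen I, grown 48 hr, received SKOV3ip1-GFP cells in serum-free medium plus compounds at 0.36-46 umol/L. After 2 hr RT and 16 hr 37 C, fixed adherent GFP cells were counted; normalized to DMSO and tomatine.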

Row | Structure (SMILES) | outcome | activity change, negative = inhibition
1 | O=c1nc2n(-c3ccccc3F)c3ccccc3cc-2c(=O)[nH]1 | inactive | –
2 | O=C(Nc1ccc(OC(F)(F)F)cc1)c1cc2ccccn2n1 | – | inactive: 7.54%
3 | COc1cc(OC)c(Nc2nc3ccc(C(=O)c4ccccc4)cc3n3c(C)nnc23)cc1Cl | – | inactive: 4.78%
4 | Cc1cc(C)n(-c2nc3ccccc3nc2Nc2cccc(C)c2C)n1 | – | inactive: -2.02%
5 | CCOc1ccc(CCNS(=O)(=O)c2cc(Br)cc3c2N(C(C)=O)CC3)cc1OCC | inactive | –
6 | CCC(Sc1nc2ccccc2c(=O)n1CCc1ccc(OC)c(OC)c1)C(=O)N(CC)CC (stereo not given) | – | inactive: 3.73%
7 | Cn1c(Nc2ccc(C(F)(F)F)cc2)nc2cc(Oc3ccnc(-c4ncc(C(F)(F)F)[nH]4)c3)ccc21 | – | inactive: 29%
8 | CCCN(C(=O)Cn1cnc2onc(-c3ccc(F)cc3)c2c1=O)c1cccc(Cl)c1 | inactive | –
9 | COc1ccc(Cl)cc1NC(=O)c1sc2nc3n(c(=O)c2c1C)CCC3 | – | inactive: -2.12%
10 | COc1ccc(NC(=O)CSc2nnc(-c3nonc3NC(C)=O)n2-c2ccccc2)cc1 | – | inactive: -2.05%
11 | CCOC(=O)c1c(NC(=O)c2ccc(S(=O)(=O)N(CC(C)C)CC(C)C)cc2)sc2c1CCN(C(=O)OCC)C2 | – | inactive: -0.119%
12 | CCC(=O)N(CCC(c1ccccc1)c1ccc2c(c1)OCO2)Cc1ccc(OC(C)C)cc1 (stereo not given) | – | inactive: -9.2%
13 | CCc1ccc(CN(Cc2cn[nH]c2-c2ccc(OC)cc2)C(=O)Nc2cc(Cl)ccc2OC)cc1 | – | inactive: 1.7%
14 | CCN(CC)C(=O)Cn1c(=O)n(Cc2ccc(C(=O)NCCc3ccc(OC)c(OC)c3)cc2)c(=O)c2ccccc21 | – | inactive: 5.82%
15 | COC(=O)c1c(NC(=O)CCCOc2cccc(C)c2)sc2c1C(C(=O)OC)CC2 (stereo not given) | inactive | –
16 | CCCCN(CCCNC(=O)c1cc(Nc2ccc(OC)c(OC)c2)nc2ccccc12)Cc1ccccc1 | – | inactive: -0.471%
17 | COc1ccc(S(=O)(=O)NCCc2csc(-c3ccc(F)cc3)n2)cc1F | inactive | –
18 | CCOC(=O)C1=C(C)N=C2SCCC(=O)N2C1c1ccc(OCc2ccccc2)cc1 (stereo not given) | – | inactive: 5.64%
19 | Cc1ccc(-n2ncc3c(NC4CCCCCC4)ncnc32)cc1Cl | – | inactive: 1.88%
20 | CC(=O)c1ccc(N2C(=O)N(CC(=O)c3ccc(F)cc3)c3ccccc3S2(=O)=O)cc1 | inactive | –
21 | Cc1ccc(-n2ncc(C(=O)NCc3ccco3)c2C2CCN(C(=O)OC(C)(C)C)CC2)c(C)c1 | – | inactive: -5.04%
22 | Cc1cccc(-c2nc3c4ccccc4nc(N4CCN(c5cc(C)ccc5C)CC4)n3n2)c1 | – | inactive: 1.03%
23 | COc1cccc(C(=O)Nc2cccc(-c3cn4c(C)csc4n3)c2)c1OC | inactive | –
24 | Cc1cccc(N2CCN(C(=O)CCn3c(=O)c4cccn4c4cccnc43)CC2C)c1 (stereo not given) | – | inactive: 3.8%

Row | Structure (SMILES) | outcome | activity change, negative = inhibition
25 | O=C(Nc1cccc(Cl)c1)c1cc2c(=O)[nH]c3ccccc3c2s1 | – | inactive: 2.87%
26 | Cc1nnc(N2CCCC(C(=O)NCCc3ccc(Cl)cc3)C2)c2nn(-c3ccccc3)c(C)c12 (stereo not given) | – | inactive: -20.3%
27 | O=C(Nc1ccc(-c2cn3cccnc3n2)cc1)c1cc(Br)ccc1Cl | – | inactive: -21.8%
28 | CCc1ccccc1NC(=O)c1cnc2sc(N3CCCC3)nn2c1=O | – | inactive: -4.54%
29 | CCOc1ccc(-c2nn(CC(=O)NC3CCCC3)c3c2cnc2ccc(F)cc23)cc1 | inactive | –
30 | COc1ccc(CN2C(=O)c3ccccc3C2C(=O)NCCc2ccccc2)c(OC)c1 (stereo not given) | – | inactive: 4.85%
31 | CC(C)CCNC(=O)CN1N=C(c2ccc(Cl)cc2)CCC1=O | – | inactive: -10.3%
32 | CC1=C(C(=O)Nc2ccc(C)cc2C)C(c2cccs2)n2nc(SCc3ccccc3Cl)nc2N1 (stereo not given) | inactive | –
33 | COc1cccc(N2CCN(C(=O)Cn3c(-c4cccs4)cc4ccccc43)CC2)c1 | – | inactive: -0.581%
34 | CCn1cc(C(=O)N2CCN(c3ccccc3F)CC2)c(=O)c2cc(S(=O)(=O)N(C)C)ccc21 | inactive | –
35 | Cc1ccc(-c2nc(C)c(CCNS(=O)(=O)c3ccc(F)c(C(F)(F)F)c3)s2)cc1 | – | inactive: -8.59%
36 | O=C(Nc1cccc(C(F)(F)F)c1)c1cc2ccc3cccnc3c2[nH]1 | – | inactive: 1.02%
37 | COc1ccc(CNc2oc(-c3ccc(COc4ccccc4C)o3)nc2C#N)cc1 | – | inactive: -21.7%
38 | CCN(Cc1ccccc1)C(=O)Cn1c(=O)n(-c2ccc(C)c(C)c2)c(=O)c2c(C)c(C)sc21 | – | inactive: -1.35%
39 | O=c1oc2ccccc2cc1-c1cn2cc(Cc3ccc(Cl)cc3)sc2n1 | – | inactive: -11.6%
40 | O=c1cc(-c2ccccc2)n2c(SCc3ccc(F)cc3)nnc2[nH]1 | – | inactive: -27.5%
41 | C[C@H](c1ccc(F)cc1CCCC(=O)O)N(c1cc(F)ccc1F)S(=O)(=O)c1ccc(Cl)cc1 | – | inactive: -1.95%
42 | CCOC(=O)c1c(C)[nH]c(CCC(=O)NCc2ccc(N(C)C)cc2)c1C | inactive | –
43 | Cc1cn2c(=O)cc(COC(=O)COc3ccccc3C)nc2s1 | inactive | –
44 | Cc1ccc(C)c(OC(=O)CSc2nnc(CNC(=O)c3ccccc3)o2)c1 | – | inactive: -5.48%
45 | Cc1ccc(NC(=O)CSc2nc(-c3ccco3)cc(C(F)(F)F)n2)cc1 | – | inactive: -3.53%
46 | Cc1ccc(NC(=O)CN2C(=O)CCSc3ccc(S(=O)(=O)N4CCCC4)cc32)cc1C | – | inactive: -1.48%
47 | CCc1nc(Oc2cccc(F)c2)c2oc3ccccc3c2n1 | – | inactive: -2.21%
48 | COc1cc(C)cc2oc(=O)c(CC(=O)NCc3cccc(Cl)c3)c(C)c12 | – | inactive: -26%

Row | Structure (SMILES) | outcome | activity change, negative = inhibition
49 | CCCSc1ncc(Cl)c(C(=O)Nc2c(C(=O)Nc3ccc(C)cc3)oc3ccccc23)n1 | inactive | –
50 | CC(=O)N1CCc2c(sc3nc(SCC(C)C)n(-c4ccc(F)c(Cl)c4)c(=O)c23)C1 | inactive | –
51 | COC(=O)c1ccc(C2C(C(=O)Nc3ccccc3)=C(C)Nc3nc4ccccc4n32)cc1 (stereo not given) | – | inactive: -12.4%
52 | CCOc1ccc(-n2nc3ccc(NC(=O)COc4ccc(OC)cc4)cc3n2)cc1 | – | inactive: -3.76%
53 | CC(C)c1ccc(OC(=O)c2cc(-c3ccccc3)on2)cc1 | – | inactive: 6.13%
54 | Cc1ccc(NC(=O)Nc2nnc(N(C)Cc3ccccc3)s2)c(C)c1 | inactive | –
55 | CCN(CC)c1ccc(NC(=O)CSc2nc(-c3cccs3)cc(C(F)(F)F)n2)cc1 | – | inactive: -9.19%
56 | CCN(CC)c1ccc(NS(=O)(=O)c2cc3[nH]c(=O)c(=O)[nH]c3cc2C)c(C)c1 | inactive | –
57 | Cc1cc2oc(C(=O)Nc3ccc(S(=O)(=O)N4CCCCCC4)cc3)cc(=O)c2cc1C | – | inactive: -0.238%
58 | COc1ccc(Cn2c(=O)c3oc4ccccc4c3n(CC(=O)Nc3ccc(F)cc3F)c2=O)cc1 | inactive | –
59 | Cc1ccc(Nc2nc(C)nc(N)c2S(=O)(=O)c2ccccc2)cc1 | inactive | –
60 | Cc1ccc(C)c(Cn2c(C3CC(=O)N(c4ccccc4C)C3)nc3ccccc32)c1 (stereo not given) | – | inactive: -1.55%
61 | CC1=C(C(=O)Nc2ccccc2)C(c2cccn2C)n2ncnc2N1 (stereo not given) | – | inactive: 9.92%
62 | CCN(CC)c1ccc(-c2nc(-c3ccccc3C)no2)cc1[N+](=O)[O-] | inactive | –
63 | O=S(=O)(c1ccc2nc(N3CCN(c4cccc(Cl)c4)CC3)ccc2c1)N1CCCCC1 | – | inactive: 4.2%
64 | Cc1ccc(CNC(=O)CSc2n[nH]c(-c3ccc(F)cc3)n2)cc1 | – | inactive: -0.0431%
65 | Cc1ccc(Cl)cc1N1CCN(Cc2nnc(-c3ccc4c(c3)OCO4)o2)CC1 | – | inactive: 0.475%
66 | Cc1cc(NC(=O)C2CCN(S(=O)(=O)c3ccc(Br)s3)CC2)ccc1Br | inactive | –
67 | O=c1oc2c(CN3CCN(CCO)CC3)c(O)ccc2cc1-c1ccccc1 | – | inactive: 3.63%
68 | Fc1ccc(-c2noc3ncnc(NCCCN4CCN(c5ccccc5)CC4)c23)cc1 | – | inactive: -2.23%
69 | Cc1ccc2c(=O)cc(C(=O)Nc3sc4c(c3C(=O)NCc3cccnc3)CCCC4)oc2c1C | inactive | –
70 | COc1ccc(-c2nc3c(C#N)c[nH]n3c2NC2CCCC2)c(OC)c1 | – | inactive: -9.42%
71 | Cc1ccc(NC(=O)CCc2c(C)nc3cc(-c4ccccc4)nn3c2C)cc1F | – | inactive: -24.9%
72 | COc1ccc(S(=O)(=O)NCC(c2ccco2)N2CCOCC2)cc1OC (stereo not given) | inactive | –

Row | Structure (SMILES) | outcome | activity change, negative = inhibition
73 | CCc1cc(C(=O)Nc2cnn(Cc3ccccc3C)c2)no1 | – | inactive: 14%
74 | COc1ccc(C(=O)NCC(c2ccc(N(C)C)cc2)N2CCc3ccccc32)c(OC)c1 (stereo not given) | inactive | –
75 | COc1cccc(NC(=O)CC2NCCNC2=O)c1 (stereo not given) | inactive | –
76 | COc1ccc(Cn2c(=O)c3oc4ccccc4c3n(Cc3ccc(Cl)cc3)c2=O)cc1 | inactive | –
77 | CCOC(=O)c1c(S(=O)(=O)N2CCCC(C(=O)Nc3cccc(C)n3)C2)c(C)n(C)c1C (stereo not given) | – | inactive: 4.05%
78 | CCOc1ccc(C2CC(=O)Nc3c2c(=O)nc(SCc2ccccc2C)n3C)cc1OC (stereo not given) | – | inactive: -9.37%
79 | CCCCCNC(=O)CCCCCn1c(=O)[nH]c2ccsc2c1=O | inactive | –
80 | O=C(Nc1sc2c(c1C(=O)NCC1CCCO1)CCC2)c1cc(=O)c2ccccc2o1 (stereo not given) | – | inactive: 7.05%
81 | COc1ccc(CNC(=O)C2CCN(c3nc4ccccc4[nH]3)CC2)cc1OC | – | inactive: 1.53%
82 | COCCCNc1oc(-c2ccc(COc3ccc(Cl)cc3)o2)nc1C#N | – | inactive: 13.1%
83 | O=C(Cn1nnc(-c2ccccc2Cl)n1)Nc1ccc(Br)cc1 | inactive | –
84 | COC(=O)c1ccc(OCC2c3cc(OC)c(OC)cc3CCN2C(=O)c2ccc(F)cc2)cc1 (stereo not given) | – | inactive: -9.92%
85 | Cc1ccc(NC(=O)CSc2nnc3scc(-c4ccccc4)n23)cc1 | – | inactive: 1.75%
86 | Cc1ccc2c(=O)cc(C(=O)Nc3cccc(C(F)(F)F)c3)oc2c1C | – | inactive: 0.173%
87 | Cc1cccn2c(=O)c3cc(C(=O)NC(C)c4ccccc4)c(=N)n(CCCO)c3nc12 (stereo not given) | – | inactive: 8.66%
88 | CCOCCc1nn2c(=O)cc(COC(=O)C3CCCCC3)nc2s1 | – | inactive: -0.891%
89 | CCOC(=O)c1c(C)[nH]c(C)c1S(=O)(=O)N1CCCC(C(=O)N2CCN(c3ccccc3)CC2)C1 (stereo not given) | – | inactive: -8.4%
90 | Cc1c(CCOc2ccc(C(=O)O)cc2)c2cc(Cl)ccc2n1C(c1ccccc1)c1ccccc1 | – | inactive: -5.26%
91 | O=C(NCCCN1CCN(c2ccc(F)cc2)CC1)c1ccc2nc(Cc3ccccc3)oc2c1 | – | inactive: -17.2%
92 | CCOc1ccc(CN2CCc3nc(Nc4ccc(OC)cc4OC)ncc3C2)cc1 | – | inactive: 0.319%
93 | CCSC1=NC2(CCN(C(=O)NC3CCCCC3)CC2)N=C1c1ccc(Cl)cc1 | – | inactive: 3.06%
94 | S=C(NCc1ccc2c(c1)OCO2)N1CCN(c2ncnc3c2oc2ccccc23)CC1 | – | inactive: -8.94% [at 92.2 µM]
95 | COc1ccc2c(c1)c1c(c(=O)n(-c3ccc(F)c(Cl)c3)c(=O)n1Cc1ccccc1C)n2C | inactive | –
